{"source": "the supplement of paper PMC11417369", "note": "± gives the standard deviation of the averaged measurements. This is one part of the list.", "data": [{"tested_on": "PfAP2-LT AP2 domain (GST-tagged)", "assay": "gcPBM binding intensity (ln(normalized median fluorescence intensity)); higher = stronger DNA binding", "method_in_brief": "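In this array assay, P. falciparum DNA-binding domains with a GST tag, expressed in E. coli, were applied for 1 h to primer-extended double-stranded 36-bp intergenic genomic probes and negative controls on an Agilent 4 × 180k array. Bound protein was visualised with Alexa488 anti-GST antibody at 488 nm. Binding intensity is the highest Masliner-normalised natural-log median intensity across replicate spots of either probe orientation.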", "values": [{"sequence": "TTTTTATTTATTCTCTTTGTATTATAAAATAAAAGC [XGTACX_negctrl_site253]", "gcPBM binding intensity (ln)": "8.38 ± 0.45"}, {"sequence": "ATATATATATTATATAGTACAGAGTATACTATTATA [XGTACX_site1893]", "gcPBM binding intensity (ln)": "8.71 ± 0.35"}, {"sequence": "AACGATATATGTACTACACACATTATGTCATCCTAT [CACACA_site2464]", "gcPBM binding intensity (ln)": "9.37 ± 0.45"}, {"sequence": "CAAAAAGGAATGTATGCACACAATTGATTTTAACTC [CACACA_site1468]", "gcPBM binding intensity (ln)": "9.16 ± 0.41"}, {"sequence": "GATCTAAAAACAAGGTGTACAAGAAAAAAAAAAAAA [XGTACX_site7577]", "gcPBM binding intensity (ln)": "8.69 ± 0.7"}, {"sequence": "ACAAAAGGGGAATACACACACATATATATATATATA [CACACA_site2215]", "gcPBM binding intensity (ln)": "10.33 ± 0.071"}, {"sequence": "TATGTATATACATAAACATGCAAAAACAATATCTTA [TGCATGCA_site950]", "gcPBM binding intensity (ln)": "8.83 ± 0.33"}, {"sequence": "TATTTATTTATTTAATGTACAAAAGAACAAGAATTT [XGTACX_site2248]", "gcPBM binding intensity (ln)": "8.35 ± 0.38"}, {"sequence": "TCTTAATCGTATTATTACTATAATTATATAATATTT [CACACA_negctrl_site1594]", "gcPBM binding intensity (ln)": "8.56 ± 0.5"}, {"sequence": "TTCTTCTGTTTTATTACACACCATTTTGTGTATACA [CACACA_site7059]", "gcPBM binding intensity (ln)": "9.25 ± 0.4"}, {"sequence": "ATAATGAAAAGAAAGGGTACAAAAAAAAAAAAAAAT [XGTACX_site3350]", "gcPBM binding intensity (ln)": "8.98 ± 0.6"}, {"sequence": "TTCTTTTATGATAATTGTACCCTTTTTAAAAAGAAA [XGTACX_site7815]", "gcPBM binding intensity (ln)": "8.16 ± 0.43"}, {"sequence": "AACTGATTATTTTTTTGTACATATATAATAATATAT [XGTACX_site5953]", "gcPBM binding intensity (ln)": "8.81 ± 0.45"}, {"sequence": "CATAAATAATATATTTGTACGAATAAAATTTGTTCA [XGTACX_site3445]", "gcPBM binding intensity (ln)": "8.46 ± 0.37"}, {"sequence": "TAAAACAATATAAAATGTACAGAATTTTTTTTTCTT [XGTACX_site6820]", "gcPBM binding intensity (ln)": "8.45 ± 0.41"}, {"sequence": "TTTTTTTTCAATGGCACACATTTTAGATTTATGCTT [CACACA_site4735]", "gcPBM binding intensity (ln)": "8.94 ± 0.57"}, {"sequence": "TATAATATAAAAATGAGTACATAGATAATAATATTT [XGTACX_site2376]", "gcPBM binding intensity (ln)": "8.81 ± 0.42"}, {"sequence": "TTTTTTTTTTATTAATGTACAAGATATATAATGTTA [XGTACX_site4809]", "gcPBM binding intensity (ln)": "8.38 ± 0.42"}, {"sequence": "ATCTTAATTTTTGAAGGTACACACTAATATATTAAA [XGTACX_site2292]", "gcPBM binding intensity (ln)": "8.57 ± 0.41"}, {"sequence": "ATATTTTATTATATAGGTACACATAATTTCATGTAA [XGTACX_site415]", "gcPBM binding intensity (ln)": "8.6 ± 0.42"}, {"sequence": "TATATAGTAAATATTTGTACATAATAAAATATATGT [XGTACX_site7873]", "gcPBM binding intensity (ln)": "8.91 ± 0.49"}, {"sequence": "TTTTGTACATCTTTTGCACACGTAATGTTATTATAA [CACACA_site1259]", "gcPBM binding intensity (ln)": "9.26 ± 0.42"}, {"sequence": "AATAAATAAAAATGCACACAGTTAACATGTTGAATT [CACACA_site4795]", "gcPBM binding intensity (ln)": "9.15 ± 0.42"}, {"sequence": "CAATGAAAAATAATGAGTACATAGTTAATAAAGATA [XGTACX_site72]", "gcPBM binding intensity (ln)": "8.88 ± 0.47"}, {"sequence": "TTTAAAGTTTTATACACACACCAAAGTTATTCTAAT [CACACA_site6432]", "gcPBM binding intensity (ln)": "8.88 ± 0.38"}, {"sequence": "AATTTCTTTTTCGATATACACACTGTATGTGTCTAA [CACACA_site3975]", "gcPBM binding intensity (ln)": "9.29 ± 0.61"}, {"sequence": "ATAATTAAAATTAAATGTACTTTTTTATATATTTTT [XGTACX_site2209]", "gcPBM binding intensity (ln)": "8.43 ± 0.55"}, {"sequence": "TGCAATATATCAAAGTGTACATGCAATAAAAAAAAA [XGTACX_site652]", "gcPBM binding intensity (ln)": "9.01 ± 0.45"}, {"sequence": "AATGATACACATATATGTACATATATATATATATAT [XGTACX_site5391]", "gcPBM binding intensity (ln)": "9.84 ± 0.12"}, {"sequence": "TATATACATATATGCACACAAAAAAATATATATTTT [CACACA_site1729]", "gcPBM binding intensity (ln)": "9.02 ± 0.34"}, {"sequence": "ATATGGATTATACATACATGCATACATACATACATA [TGCATGCA_site475]", "gcPBM binding intensity (ln)": "8.91 ± 0.36"}, {"sequence": "AAAATTTAATATAATGCACACATAAAACAAAAACAA [CACACA_site8071]", "gcPBM binding intensity (ln)": "9.12 ± 0.4"}, {"sequence": "AAATGTAGAAAAAGTTGTACACTGTTTCAAAAATAA [XGTACX_site1063]", "gcPBM binding intensity (ln)": "8.64 ± 0.52"}, {"sequence": "TTATTTTTCTTTATTGGTACACACGAAAAAAAAATT [XGTACX_site6482]", "gcPBM binding intensity (ln)": "8.47 ± 0.32"}, {"sequence": "GCCCACACGAACCATGCATGCCACGATATAAACCAC [TGCATGCA_site322]", "gcPBM binding intensity (ln)": "9.14 ± 0.33"}, {"sequence": "TTTTTTACAGAAAAATATTAAAATTATAAATGTGAA [GTGCAC_negctrl_site451]", "gcPBM binding intensity (ln)": "8.07 ± 0.43"}, {"sequence": "TATGAAATTTTAATTACACACAGGAAAATAAAATGT [CACACA_site8430]", "gcPBM binding intensity (ln)": "8.95 ± 0.39"}, {"sequence": "TAATATATATATATGGTGCATTTAATTTATATATAA", "gcPBM binding intensity (ln)": "8.54 ± 0.33"}, {"sequence": "AAAAAACAATTTGTGTGTACACATGATACGTTCGAT [XGTACX_site4112]", "gcPBM binding intensity (ln)": "9.39 ± 0.28"}, {"sequence": "AAGAAGTGGAAAATATACTCCACATATATATATGTG [CACACA_negctrl_site304]", "gcPBM binding intensity (ln)": "8.72 ± 0.5"}, {"sequence": "ATATATATTTTTAATTGTACAGAATTAAAAATATTG [XGTACX_site1967]", "gcPBM binding intensity (ln)": "8.35 ± 0.39"}, {"sequence": "AAAAAAAAAAAAAGCTGTACAATTAAAGACAAACCT [XGTACX_site8610]", "gcPBM binding intensity (ln)": "8.94 ± 0.33"}, {"sequence": "CTTTAACCATATATGTGTACGTATTTTATTCATATT [XGTACX_site6212]", "gcPBM binding intensity (ln)": "9.11 ± 0.39"}, {"sequence": "GTGAGTGAAATATGCAAACACACACCCGAAAAATGT [CACACA_site3197]", "gcPBM binding intensity (ln)": "9.61 ± 0.38"}, {"sequence": "TATAAAGGTATACAAAGTACAAAATACATATATACT [XGTACX_site6431]", "gcPBM binding intensity (ln)": "9.02 ± 0.42"}, {"sequence": "TATGATTTTAATGAAACACACAATTTTATGTTAATA [CACACA_site311]", "gcPBM binding intensity (ln)": "8.47 ± 0.42"}, {"sequence": "TAAAGTTTTTCCTATCTATATTTATATTATAAATGA [XGTACX_negctrl_site20]", "gcPBM binding intensity (ln)": "8.24 ± 0.42"}, {"sequence": "CAAATAATATTATGAAGTACTTCAAATTTTGAAAGA [XGTACX_site2530]", "gcPBM binding intensity (ln)": "8.54 ± 0.5"}, {"sequence": "TTTAATATTATTATTTTACACACTTTTTTCCTTTTA [CACACA_site8780]", "gcPBM binding intensity (ln)": "8.79 ± 0.62"}, {"sequence": "AATATAGGTATATCCACACACATATTTATATTTATA [CACACA_site6867]", "gcPBM binding intensity (ln)": "9.14 ± 0.38"}, {"sequence": "TCTTATAAACTCTGCACACATAATATATTAAATGAG [CACACA_site1936]", "gcPBM binding intensity (ln)": "8.91 ± 0.3"}, {"sequence": "TGTGTATAAGTCACTTGTACTAGTAGTAAAAAAAAA [XGTACX_site4341]", "gcPBM binding intensity (ln)": "8.87 ± 0.56"}, {"sequence": "TAATATATGTTATATACACACATATAAATATAAATA [CACACA_site6339]", "gcPBM binding intensity (ln)": "8.97 ± 0.28"}, {"sequence": "TGAAGTATAATTTATCTAATATGTTATATTTTATTT [TGCATGCA_negctrl_site56]", "gcPBM binding intensity (ln)": "8.43 ± 0.6"}, {"sequence": "ATATTAATTTCTCATGCATGTTCTACCCAATTGTAA [TGCATGCA_site355]", "gcPBM binding intensity (ln)": "8.93 ± 0.43"}, {"sequence": "AAAATCTAATATAATGCACACATAAAAAAAAATCAA [CACACA_site9211]", "gcPBM binding intensity (ln)": "9.02 ± 0.57"}, {"sequence": "TTTTGTTATTATGAAGTGCATTTATGTTCATGTCTA", "gcPBM binding intensity (ln)": "8.77 ± 0.4"}]}]}
